In all, about 48,000 compounds went through this assay and about 450 (0.94%) were called active. This list was built around the results that the source calls inconclusive (neither active nor inactive); the mix of calls is not that of the screen. Calls come from the whole dose curve; as a rule, active = well fitted inhibition curve with a large enough effect; inconclusive = small, poorly fitted or top-dose-only effect; inactive = no such curve, though single readings can be large or run the other way. A potency beside an inconclusive call is a rough fit, not a confirmed value.
Test: Primary qHTS for Identification of Small Molecule Inhibitors of Huntingtin Promoter Activity; note: nearly all actives have a fitted effect of over 50% in size
Settings: HEK293 HTT promoter firefly luciferase reporter (activity 0% = vehicle and -100% = no light), 24 h; activity change, negative = inhibition: at 57.5 µM (top of the series)
Method in brief: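 HEK293 luciferase promoter-reporter cells (2,500/well) plated 24 h, then compounds added at up to 57.5 uM final for 24 h at 37 °C. Firefly luminescence by Dual-Glo, normalized to vehicle (0%) and zero RLU (-100%).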
Potency is the fitted concentration of half-maximal effect; tags give direction and shape of the fitted curve.

Row | Structure (SMILES) | Potency | activity change, negative = inhibition
1 | COc1ccc(-c2cc3nc(C)c(CCC(=O)N4CCN(c5cccc(Cl)c5)CC4)c(C)n3n2)c(OC)c1 | inconclusive: 39.8 µM [inhibitor, single point] | 
2 | C[C@]12CC[C@@H]3c4ccc(O)cc4CC[C@H]3[C@H]1[C@@H](O)[C@@H](O)[C@H]2O |  | inactive: 15%
3 | Cc1ccccc1-c1ncnn1-c1sc2c(c1C#N)CCCCC2 |  | inactive: 1.21%
4 | CCOC(=O)c1ccc(CN(Cc2ccccc2)S(=O)(=O)c2ccc(C)cc2)cc1 | inconclusive: 11.2 µM [inhibitor, partial curve] | 
5 | COc1ccc2oc(=O)cc(CN3CCN(c4ccc(F)cc4)CC3)c2c1 | inconclusive: 39.8 µM [inhibitor, single point] | 
6 | Cc1cccc(C(=O)Nc2ccc(-c3nc4ccccc4s3)cc2Cl)c1 |  | inactive: 27.9%
7 | CCOC(=O)c1ccc(NC(=O)CN(c2ccc(C)cc2)S(=O)(=O)c2c(C)noc2C)cc1 | inconclusive: 39.8 µM [inhibitor, single point] | 
8 | CC(C)N(CCCNC(=O)Nc1ccc(C(C)(C)C)cc1)C[C@H]1O[C@@H](n2cc(Br)c3c(N)ncnc32)[C@H](O)[C@H]1O | inconclusive: 1.53 µM [inhibitor, full curve] | 
9 | CCc1ccc(-c2nc(CSCC(=O)NCc3ccccc3OC)c(C)o2)cc1 | inconclusive: 39.8 µM [inhibitor, single point] | 
10 | O=C1CC(c2nc3ccccc3n2CCCCOc2ccccc2)CN1c1ccccc1Cl (centres undefined) | inconclusive: 39.8 µM [inhibitor, single point] | 
11 | O=C(C1CCC(CNS(=O)(=O)c2ccc(Br)s2)CC1)N1CCN(c2ccccc2)CC1 (centres undefined) |  | inactive: 0%
12 | COc1ccc(-n2ncc3c(N4CCN(c5cccc(C)c5)C(C)C4)ncnc32)cc1 (centres undefined) | inconclusive: 39.8 µM [inhibitor, single point] | 
13 | COc1ccc(Cl)cc1NC(=O)CCc1nc(-c2ccccc2F)no1 | inconclusive: 25.1 µM [inhibitor, single point] | 
14 | Cn1cc(C2=C(c3c4n(c5ccccc35)CCC(CN)C4)C(=O)NC2=O)c2ccccc21 (centres undefined) | inconclusive: 21.7 µM [inhibitor, partial curve] | 
15 | Cc1c(C(=O)N2CCCC2)oc2c1-c1nn(CC(=O)NCc3cccc(Br)c3)cc1CC2 | inconclusive: 22.4 µM [inhibitor, single point] | 
16 | COc1ccc(CSc2nc3ncccc3[nH]2)cc1 |  | inactive: 6.85%
17 | COc1cccc(N2CC(NC(=O)c3ccc(S(=O)(=O)N4CCCC4)cc3)CC2=O)c1 (centres undefined) | inconclusive: 31.6 µM [inhibitor, single point] | 
18 | O=C(NC1CCCC1)c1c[nH]c2ccc(S(=O)(=O)Nc3cccc(C(F)(F)F)c3)cc2c1=O | inconclusive: 35.5 µM [inhibitor, partial curve, poor fit] | 
19 | CC(=O)OCC#CCSc1nnc(-c2cccc(Br)c2)o1 |  | inactive: -1.88%
20 | CCCCN1CC(c2nc3ccccc3n2CCCCOc2c(C)cccc2C)CC1=O (centres undefined) | inconclusive: 35.5 µM [inhibitor, partial curve, poor fit] | 

Row | Structure (SMILES) | Potency | activity change, negative = inhibition
21 | CCOc1ccc(Sc2cc(C(=O)NCCc3ccc(OC)c(OC)c3)c3ccccc3n2)cc1 | inconclusive: 7.94 µM [inhibitor, partial curve] | 
22 | COc1ccc(-c2nn(-c3ccccc3)cc2C(=O)Nc2ccccc2OC)cc1 | inconclusive: 39.8 µM [inhibitor, single point] | 
23 | CC(C)CN(c1ccccc1)S(=O)(=O)c1nnc(NC(=O)c2ccco2)s1 |  | inactive: -18.2%
24 | COc1ccc(NC(=O)N2CCc3c(sc4c3CCCC4)C2c2ccc(F)cc2)cc1 (centres undefined) | inconclusive: 39.8 µM [inhibitor, partial curve, poor fit] | 
25 | Cc1ccc(Cn2cc(CCC(=O)NC3CCCCC3)c3ccccc32)cc1 | inconclusive: 31.6 µM [inhibitor, single point] | 
26 | CCCCCSc1nnc2c(n1)OC(c1ccc(C)s1)N(C(C)=O)c1ccccc1-2 (centres undefined) | inconclusive: 39.8 µM [inhibitor, single point] | 
27 | COc1ccccc1NC(=O)CN1C(=O)C(c2ccc(F)cc2)=NC1(C)C | inconclusive: 20 µM [inhibitor, single point] | 
28 | Cc1cccc(N2CCN(C(=O)Nc3ccc(F)cc3)CC2C)c1 (centres undefined) |  | inactive: -11%
29 | CCS(=O)(=O)c1c(Nc2ccc(F)c(Cl)c2)sc(C(=O)c2ccccc2)c1N | inconclusive: 39.8 µM [inhibitor, single point] | 
30 | CCOc1ccc(-c2ccc(NS(=O)(=O)c3cc(C)ccc3OC)cc2)nn1 | inconclusive: 39.8 µM [inhibitor, partial curve, poor fit] | 
31 | Cc1ccc(N2CCN(C(=O)c3nn(C)c4c3CS(=O)(=O)c3ccccc3-4)CC2C)cc1 (centres undefined) | inconclusive: 12.6 µM [inhibitor, partial curve, poor fit] | 
32 | O=C(CC1N=C2c3ccccc3N=C(SCc3ccccc3Cl)N2C1=O)NC1CCCCC1 (centres undefined) | inconclusive: 39.8 µM [inhibitor, single point] | 
33 | CC1CCN(S(=O)(=O)c2ccc3c(c2)N(CC(=O)Nc2ccc(F)c(Cl)c2)C(=O)CO3)CC1 | inconclusive: 39.8 µM [inhibitor, single point] | 
34 | Cc1ccc(OCCn2c(COc3ccc(Cl)cc3)nc3ccccc32)cc1 | inconclusive: 20 µM [inhibitor, partial curve, poor fit] | 
35 | CCC[C@@H](C=O)NC(=O)[C@H](CC(C)C)NC(=O)[C@H](CC(C)C)NC(=O)OCc1ccccc1 | inconclusive: 3.06 µM [inhibitor, full curve] | 
36 | COc1ccc(N2C(=O)CCSC23C(=O)N(Cc2ccc(F)cc2)c2ccccc23)cc1Cl (centres undefined) | inconclusive: 39.8 µM [inhibitor, single point] | 
37 | Cc1ccc(NC(=O)CN2C(=O)C(C)(C)c3cc(S(=O)(=O)N4CCCCC4)ccc32)c(Br)c1 | inconclusive: 25.1 µM [inhibitor, single point] | 
38 | COc1cccc(NS(=O)(=O)c2cc(-c3cnc(C4CC4)o3)ccc2C)c1 | inconclusive: 1 µM [inhibitor, full curve, poor fit] | 
39 | COc1ccc(CCNC(=O)CSc2cn(CCNC(=O)c3ccc(OC)c(OC)c3)c3ccccc23)cc1OC | inconclusive: 28.2 µM [inhibitor, single point] | 
40 | CCOc1ccc(CNC(=O)c2cccc(Nc3nc4ccccc4n4nnnc34)c2)cc1OC | inconclusive: 10 µM [inhibitor, partial curve] | 

Row | Structure (SMILES) | Potency | activity change, negative = inhibition
41 | CC(C)Cn1c(SCc2cccc(F)c2)nc2ccsc2c1=O | inconclusive: 20 µM [inhibitor, partial curve, poor fit] | 
42 | Cc1ccc(CNc2c(C)c(C)nc3nncn23)cc1 | inconclusive: 1.58 µM [inhibitor, full curve, poor fit] | 
43 | COc1ccc(Cc2nc3ccc(C(=O)NCCc4ccc(Cl)cc4)cc3o2)cc1 | inconclusive: 31.6 µM [inhibitor, single point] | 
44 | Cc1c(C(=O)N(C)C)sc2c1c(=O)n(-c1ccc(F)cc1)c(=O)n2Cc1cc(=O)n2ccccc2n1 |  | inactive: -7.15%
45 | CCCCCn1c(NCc2ccccc2OC)nc2ccccc21 | inconclusive: 25.1 µM [inhibitor, partial curve, poor fit] | 
46 | CCOC(=O)C1CCN(c2nc(-c3ccc(Br)cc3)nc3ccccc23)CC1 | inconclusive: 39.8 µM [inhibitor, single point] | 
47 | N[C@@]1(C(=O)O)CS(=O)(=O)[C@H]2[C@H](C(=O)O)[C@H]21 |  | inactive: -24%
48 | COc1ccc(C(=O)Nc2ccc(-c3cc4ccccc4oc3=O)c(C)c2)cc1Br | inconclusive: 15.8 µM [inhibitor, partial curve, poor fit] | 
49 | Oc1ccccc1-c1nc(/C=C/c2ccccc2Cl)no1 |  | inactive: 15%
50 | COc1ccc(C(=O)Nc2ccc3nc(SCc4ccc(C)cc4)sc3c2)cc1 | inconclusive: 4.47 µM [inhibitor, full curve] | 
51 | Cc1ccc2c(=O)c3cccc(CC(=O)O)c3oc2c1C | inconclusive: 34.3 µM [inhibitor, single point] | 
52 | Cc1cc(=O)n2nc(N3CCC(C(=O)Nc4ccc(C(C)C)cc4)CC3)sc2n1 | inconclusive: 5.01 µM [inhibitor, partial curve] | 
53 | CCOc1ccc(C(=O)c2cn(CC(=O)Nc3cc(OC)cc(OC)c3)c3ccc(F)cc3c2=O)cc1 | inconclusive: 15.8 µM [inhibitor, partial curve, poor fit] | 
54 | COc1ccc(S(=O)(=O)N(Cc2nc(-c3cccc(C)c3)no2)C2CCCCC2)cc1 | inconclusive: 39.8 µM [inhibitor, single point] | 
55 | CCCSCCCNC(=O)C1CCN(C(=O)c2cc3sccc3n2C)CC1 | inconclusive: 35.5 µM [inhibitor, partial curve, poor fit] | 
56 | CCCCOc1ccc(C2c3c(-c4ccccc4O)n[nH]c3C(=O)N2Cc2ccncc2)cc1OC (centres undefined) | inconclusive: 28.2 µM [inhibitor, single point] | 
57 | CCC(=C(c1ccc(O)cc1)c1ccc(OCCNC)cc1)c1ccccc1 | inconclusive: 21.7 µM [inhibitor, partial curve] | 
58 | Cc1c2cnn(CC(=O)NCc3ccccc3)c(=O)c2c(C)n1Cc1cccc(Cl)c1 | inconclusive: 22.4 µM [inhibitor, partial curve] | 
59 | COc1ccc(CCN2C(=O)N(c3ccc(F)cc3)C(=O)C2CC(=O)Nc2ccccc2)cc1 (centres undefined) | inconclusive: 3.16 µM [inhibitor, partial curve, poor fit] | 

— PubChem BioAssay AID1508623 (National Center for Advancing Translational Sciences (NCATS), 2021)
